# Laboratory results as given in paper PMC4336329 (PLoS ONE, 2015).
# The campaign covered roughly 310,000 compounds. About 14,000 (4.5%) showed an effect of 50% or more. Effects have a minus sign here. This is one part of the list.
# Biological target: human ether-à-go-go-related gene (hERG) potassium channel (human, UniProt Q12809)
# Test: primary screen, population patch clamp on CHO cells stably expressing hERG
# 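Note: peak tail current of the secondary pulse compared with the same well before compound.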
# Sequence of human ether-à-go-go-related gene (hERG) potassium channel (Q12809 whole entry, looked up): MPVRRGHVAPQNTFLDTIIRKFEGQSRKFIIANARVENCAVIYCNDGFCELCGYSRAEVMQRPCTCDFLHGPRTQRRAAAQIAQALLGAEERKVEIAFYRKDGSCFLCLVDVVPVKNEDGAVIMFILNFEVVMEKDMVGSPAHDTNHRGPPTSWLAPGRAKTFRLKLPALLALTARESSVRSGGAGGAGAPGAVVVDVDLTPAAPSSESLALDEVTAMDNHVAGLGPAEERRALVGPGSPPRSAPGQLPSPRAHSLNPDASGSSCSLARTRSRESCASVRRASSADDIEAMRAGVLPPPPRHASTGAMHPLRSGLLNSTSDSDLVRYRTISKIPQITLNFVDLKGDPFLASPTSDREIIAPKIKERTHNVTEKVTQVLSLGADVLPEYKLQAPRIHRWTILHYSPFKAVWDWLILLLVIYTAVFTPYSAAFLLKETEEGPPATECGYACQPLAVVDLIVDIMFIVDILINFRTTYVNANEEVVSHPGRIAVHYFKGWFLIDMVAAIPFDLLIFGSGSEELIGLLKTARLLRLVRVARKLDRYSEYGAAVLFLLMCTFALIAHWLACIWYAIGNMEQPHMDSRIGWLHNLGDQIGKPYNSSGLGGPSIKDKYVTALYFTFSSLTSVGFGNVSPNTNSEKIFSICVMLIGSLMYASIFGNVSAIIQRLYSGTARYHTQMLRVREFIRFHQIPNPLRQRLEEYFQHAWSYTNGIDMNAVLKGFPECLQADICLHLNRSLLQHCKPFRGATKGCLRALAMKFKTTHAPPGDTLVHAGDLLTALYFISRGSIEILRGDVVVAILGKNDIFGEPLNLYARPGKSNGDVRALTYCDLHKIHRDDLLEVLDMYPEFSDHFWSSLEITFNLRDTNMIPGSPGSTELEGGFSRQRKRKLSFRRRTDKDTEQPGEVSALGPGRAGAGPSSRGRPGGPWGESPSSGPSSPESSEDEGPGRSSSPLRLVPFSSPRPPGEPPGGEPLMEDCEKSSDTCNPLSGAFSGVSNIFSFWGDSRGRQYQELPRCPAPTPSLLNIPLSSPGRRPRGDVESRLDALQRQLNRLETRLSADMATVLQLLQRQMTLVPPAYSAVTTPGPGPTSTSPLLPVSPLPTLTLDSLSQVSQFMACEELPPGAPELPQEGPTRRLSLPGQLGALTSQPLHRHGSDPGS
row,Structure (SMILES),"hERG current change (%, negative = inhibition) at 10uM"
1,CC1(C)Cc2c(cnn2-c2ccc(F)cc2)C(NC(=O)CN2CCCCC2=O)C1 (centres unmarked),-4.5%
2,O=C(CSc1nnc(Cc2cccs2)n1C1CCCCC1)N1CCN(C(=O)c2ccco2)CC1,-14.9%
3,Cc1nc2c(-c3ccccc3)c(C)[nH]n2c(=O)c1Cl,-8.17%
4,O=C(CCC(=O)NNC(=S)Nc1ccccc1)NCc1ccccc1,29.4%
5,Nc1cc(N2CCCC2)c(Cl)cc1[N+](=O)[O-],16.8%
6,Cc1ccc(NC(=O)c2noc(C(C)C)c2[N+](=O)[O-])cc1,8.4%
7,CN(CC(=O)Nc1ccc(F)cc1)c1ccc(S(=O)(=O)N2CCCCC2)cc1[N+](=O)[O-],-17.8%
8,CCc1ccc(NC(=O)N(Cc2ccco2)C(C)c2cccs2)cc1 (centres unmarked),10.9%
9,OCCN(Cc1ccccc1)Cc1cccc(C(F)(F)F)c1,10.2%
10,CCOC(=O)C1CCN(c2cc(C)nc3cc(-c4cccc(F)c4)nn23)CC1,-5.74%
11,O=C(NCc1ccccc1)c1ncn(Cc2ccccc2)c1C(=O)NCc1ccccc1,17.3%
12,CC(=O)Nc1ccc2nc3ccccc3nc2c1,8.1%
13,Cc1ccc(S(=O)(=O)Nc2cccc(-n3cnnn3)c2)cc1C,-1.36%
14,COCCCNC(=O)Cn1cnc2sc(C)c(S(=O)(=O)N3CC(C)CC(C)C3)c2c1=O (centres unmarked),-0.637%
15,NC(=S)N=Nc1c(O)n(Cc2ccccc2)c2ccccc12,-3.89%
16,CCOC(=O)N1CCN(S(=O)(=O)CCNC(=O)c2cccc(OC)c2)CC1,2.45%
17,CCOC(=O)c1cnc(=O)[nH]c1C.Cl,-2.23%
18,COc1ccc(N2C(=O)CSC23C(=O)Nc2ccccc23)cc1OC (centres unmarked),3.26%
19,CCOC(=O)C(Cc1ccc(OC)c([N+](=O)[O-])c1)NC(=O)CCC(=O)Nc1ccc(OC)cc1 (centres unmarked),1.35%
20,COc1ccccc1NC(=O)CN1C(=O)NC2(CCCCCCC2)C1=O,1.08%
21,Cn1c(O)c(C(=NCCc2c[nH]c3ccccc23)c2ccccc2)c(=O)n(C)c1=O,-8.35%
22,Cc1ccc(C(c2nnnn2CCC(C)C)N2CCN(C)CC2)cc1.Cl (centres unmarked),-30.4%

row,Structure (SMILES),"hERG current change (%, negative = inhibition) at 10uM"
1,O=C(O)/C=C/C(=O)NCc1ccccc1,6.82%
2,Cc1cccc(OCC(=O)N/N=C/c2ccc3c(c2)OCO3)c1,-2.46%
3,N#Cc1cnc(NOCc2ccc(Cl)cc2)nc1,-8.5%
4,COc1ccccc1N(CC(=O)NCc1ccccc1)C(=O)CCC(=O)Nc1cc(C)ccn1,-9.35%
5,Cc1ccc(C(=O)NC(C)c2ccc(S(N)(=O)=O)cc2)s1 (centres unmarked),9.96%
6,Cc1ccc(C)c(NC(=S)NCCc2c[nH]c3ccccc23)c1,-15.5%
7,O=[N+]([O-])c1cc(/C=N/O)ccc1Oc1ccccc1Cl,-16%
8,O=C1CCCN=C(Nc2ccc(F)c(Cl)c2)S1,-18.8%
9,CC(=O)c1ccc(NC(=O)COC(=O)c2ccccc2Nc2ccccc2)cc1,14.9%
10,CCCN1CCC(=O)N(CCOc2ccccc2)CC1,-6.3%
11,CCn1c(CNc2ccc(C)cc2)nnc1SCC(=O)NCc1ccccc1,-10.6%
12,O=C(CN1CCN(C(=O)c2ccco2)CC1)Nc1cccc(S(=O)(=O)N2CCCC2)c1,-16.2%
13,Cc1cccc2sc(NC(=O)C3CCCO3)nc12 (centres unmarked),-8.63%
14,Cn1c(CN2CCCCC2)nc2cc(NC(=O)c3ccc(Cl)cc3)ccc21,-59.8%
15,CCn1c(CC(=O)Nc2ccc(OC)cc2)nnc1SCC(=O)N1CCOCC1,18.4%
16,Cc1ccc(NC2CCCN(C(=O)c3ccccc3N3CCOCC3)C2)cc1C (centres unmarked),-0.641%
17,Cc1cc(S(=O)(=O)NC2CCCCC2)ccc1OCC(=O)NCc1cccnc1,-23.2%
18,Cc1cc(NC(=O)CN2C(=O)NC3(CCC(C)CC3)C2=O)no1 (centres unmarked),30.4%
19,Cc1ccc(NC(=O)CSc2n[nH]c(C)c2[N+](=O)[O-])cc1C,4.77%
20,CCC(=O)c1ccc(OCC(=O)N2CCN(C(=O)c3ccccc3)CC2)cc1,-37.8%
21,O=C(Nc1ccccc1C(=O)NCc1ccccc1)C1=CSCCO1,12.2%
22,CCOC(=O)CSc1ccc(C(=O)N2CCC3(CC2)OCCO3)cc1[N+](=O)[O-],20.7%
